This passage reports binding results from paper PMC9372576.

In test [1] the target is T1, GvpA fragment A44-76 (Halobacterium salinarum) (UniProt P08958).
T1 sequence: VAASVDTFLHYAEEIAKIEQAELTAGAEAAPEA
The test is described as follows: split reporter; split-GFP (NGFP and CGFP of salt-stable mGFP2) in Hfx. volcanii transformants, 24 h 37 °C then 24 h 30 °C; relative fluorescence (rf) against the wild type; the highest of eight tag combinations is given.

For test [2], the target named is T2, GvpC N-terminal fragment Nterm (Halobacterium salinarum) (UniProt P24574).
T2 sequence: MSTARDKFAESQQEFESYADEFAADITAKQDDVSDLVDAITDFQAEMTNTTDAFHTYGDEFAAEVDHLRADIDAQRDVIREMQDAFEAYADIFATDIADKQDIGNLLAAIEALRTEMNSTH
The test is described as above.

Test [3] deals with T3, CBDA (Halobacterium salinarum) (UniProt P08958).
T3 sequence: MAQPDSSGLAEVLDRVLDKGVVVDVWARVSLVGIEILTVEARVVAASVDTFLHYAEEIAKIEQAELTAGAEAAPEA
Put plainly: pull-down; CBD-tagged bait and one untagged prey co-produced in Hfx. volcanii CBDX/Y transformants; lysate in 2.5 M KCl buffer pH 8.0 bound to cellulose (Avicel), six washes, elution with ethylene glycol, Western analysis with Gvp antisera.

The target in test [4] is T3, CBDA (Halobacterium salinarum). The test is described as follows: pull-down; CBDA co-produced with GvpF through GvpM all together (CBDA/F-M transformants); cellulose matrix, elution fraction probed by Western analysis with each antiserum.
Test [5] concerns the target T4, GvpO fused to NGFP or CGFP (Halobacterium salinarum) (UniProt O51968).
T4 sequence: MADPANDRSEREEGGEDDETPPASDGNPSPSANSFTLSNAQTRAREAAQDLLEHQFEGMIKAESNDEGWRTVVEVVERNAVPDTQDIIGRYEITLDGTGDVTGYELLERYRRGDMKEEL
Put plainly: split reporter; split-GFP (NGFP and CGFP of salt-stable mGFP2) in Hfx. volcanii transformants, 24 h 37 °C then 24 h 30 °C; relative fluorescence (rf) against the wild type; the highest of eight tag combinations is given.

Test [6] addresses T5, GvpA fused to NGFP or CGFP (Halobacterium salinarum) (UniProt P08958).
T5 sequence: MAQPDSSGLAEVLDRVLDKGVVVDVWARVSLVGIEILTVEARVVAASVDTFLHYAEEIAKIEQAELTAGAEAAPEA
The description is as above.

Test [7] concerns the target T6, GvpA fragment A20-47 (Halobacterium salinarum) (UniProt P08958).
T6 sequence: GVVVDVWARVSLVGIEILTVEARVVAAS
The test is described as above.

Results are given in words; binding and its absence hold for the method and conditions named. Binding seen in cells or lysates may run through a third protein. Some results given as binding are weak or reduced against the parent protein; the word gives no strength. For some of these results: Sequences can lack the tags named with a protein.

With GVVVDVWARVSLVGIEILTVEARVVAAS (domain or fragment, UniProt P08958 20-47) [GvpA fragment A20-47], in test [1], the binding result is given as “no binding (tested: rf ≤ 0.48)”.

B1: GvpH fused to NGFP or CGFP (protein, UniProt P24372 1-182)
chain: MVPDENDDASDDQSSQLSGLLDQLHTLVEVLADIEEEGGHRHESGRIDRGNARIDYDYDVSIGLGRADGSSYDEEPSSNRSRSEQRSGQQRTTEDSIHVETRGGTSGDELVVVADLPGVTDDDVDVALDTDEQALTLRVDDDVVERVVLDRPDVAITDMTLRNQVLEIRLARTSDTDGGEST
Consider B1, for which the binding result in test [2] was “binds”.

B2: GvpH (protein, UniProt P24372 1-182)
chain: MVPDENDDASDDQSSQLSGLLDQLHTLVEVLADIEEEGGHRHESGRIDRGNARIDYDYDVSIGLGRADGSSYDEEPSSNRSRSEQRSGQQRTTEDSIHVETRGGTSGDELVVVADLPGVTDDDVDVALDTDEQALTLRVDDDVVERVVLDRPDVAITDMTLRNQVLEIRLARTSDTDGGEST
As to B2, the binding entry in test [3] and in test [4] was “binds” throughout.

B3: GvpM (protein, UniProt P24377 1-84)
chain: MEPTKDETHAIVEFVDVLLRDGAVIQADVIVTVADIPLIGISLRAAIAGMTTMTEYGLFEEWDAAHRQQSEAFTTSPTADRRED
Turning to B3, the binding entry in test [3] and in test [4] was “binds” throughout.

B4: GvpF fused to NGFP or CGFP (protein, UniProt Q9HI21 1-213)
chain: MTENLYTYGIIEQEDLELDVEGVAGAEQVYTVDYKTLSAVVSDIDTTDPERTDEDVEAHNNVLQEVLKHEEERTVVPMSFGMAFKSARTLKGVLRGARRALRSTLNDIEGTVELGVKILGPGDDTVPREEIQENVTDQLADLSINETENDLFTDRLIINKSYLVDFEKRDAFDSAIDDVEAEYDELTIQYTGPWPPYNFVDIHIGAEQQQGGR
For B4, the binding entry in test [5] was “binds”.

B5: GvpF variant D15R (protein, UniProt Q9HI21 1-213)
chain: MTENLYTYGIIEQERLELDVEGVAGAEQVYTVDYKTLSAVVSDIDTTDPERTDEDVEAHNNVLQEVLKHEEERTVVPMSFGMAFKSARTLKGVLRGARRALRSTLNDIEGTVELGVKILGPGDDTVPREEIQENVTDQLADLSINETENDLFTDRLIINKSYLVDFEKRDAFDSAIDDVEAEYDELTIQYTGPWPPYNFVDIHIGAEQQQGGR
For B5, the binding entry in test [6] is reported as “binds”.

B6: GvpF variant D19A (protein, UniProt Q9HI21 1-213)
chain: MTENLYTYGIIEQEDLELAVEGVAGAEQVYTVDYKTLSAVVSDIDTTDPERTDEDVEAHNNVLQEVLKHEEERTVVPMSFGMAFKSARTLKGVLRGARRALRSTLNDIEGTVELGVKILGPGDDTVPREEIQENVTDQLADLSINETENDLFTDRLIINKSYLVDFEKRDAFDSAIDDVEAEYDELTIQYTGPWPPYNFVDIHIGAEQQQGGR
Regarding B6, in test [6], the binding entry is on record as “binds”.

B7: GvpF variant K85A (protein, UniProt Q9HI21 1-213)
chain: MTENLYTYGIIEQEDLELDVEGVAGAEQVYTVDYKTLSAVVSDIDTTDPERTDEDVEAHNNVLQEVLKHEEERTVVPMSFGMAFASARTLKGVLRGARRALRSTLNDIEGTVELGVKILGPGDDTVPREEIQENVTDQLADLSINETENDLFTDRLIINKSYLVDFEKRDAFDSAIDDVEAEYDELTIQYTGPWPPYNFVDIHIGAEQQQGGR
Regarding B7, the binding result in test [6] is “binds”.

B8: GvpF variant D53R (protein, UniProt Q9HI21 1-213)
chain: MTENLYTYGIIEQEDLELDVEGVAGAEQVYTVDYKTLSAVVSDIDTTDPERTREDVEAHNNVLQEVLKHEEERTVVPMSFGMAFKSARTLKGVLRGARRALRSTLNDIEGTVELGVKILGPGDDTVPREEIQENVTDQLADLSINETENDLFTDRLIINKSYLVDFEKRDAFDSAIDDVEAEYDELTIQYTGPWPPYNFVDIHIGAEQQQGGR
On to B8, for which the binding result in test [6] is “binds”.

B9: GvpF (protein, UniProt Q9HI21 1-213)
chain: MTENLYTYGIIEQEDLELDVEGVAGAEQVYTVDYKTLSAVVSDIDTTDPERTDEDVEAHNNVLQEVLKHEEERTVVPMSFGMAFKSARTLKGVLRGARRALRSTLNDIEGTVELGVKILGPGDDTVPREEIQENVTDQLADLSINETENDLFTDRLIINKSYLVDFEKRDAFDSAIDDVEAEYDELTIQYTGPWPPYNFVDIHIGAEQQQGGR
Take B9: the binding entry in test [3] and in test [4] was “binds” throughout.

B10: GvpF variant D154A (protein, UniProt Q9HI21 1-213)
chain: MTENLYTYGIIEQEDLELDVEGVAGAEQVYTVDYKTLSAVVSDIDTTDPERTDEDVEAHNNVLQEVLKHEEERTVVPMSFGMAFKSARTLKGVLRGARRALRSTLNDIEGTVELGVKILGPGDDTVPREEIQENVTDQLADLSINETENDLFTARLIINKSYLVDFEKRDAFDSAIDDVEAEYDELTIQYTGPWPPYNFVDIHIGAEQQQGGR
B10: in test [6], the binding entry was “binds”.

B11: GvpF variant D19R (protein, UniProt Q9HI21 1-213)
chain: MTENLYTYGIIEQEDLELRVEGVAGAEQVYTVDYKTLSAVVSDIDTTDPERTDEDVEAHNNVLQEVLKHEEERTVVPMSFGMAFKSARTLKGVLRGARRALRSTLNDIEGTVELGVKILGPGDDTVPREEIQENVTDQLADLSINETENDLFTDRLIINKSYLVDFEKRDAFDSAIDDVEAEYDELTIQYTGPWPPYNFVDIHIGAEQQQGGR
As to B11, the binding result in test [6] is given as “binds”.

B12: GvpF variant R73A (protein, UniProt Q9HI21 1-213)
chain: MTENLYTYGIIEQEDLELDVEGVAGAEQVYTVDYKTLSAVVSDIDTTDPERTDEDVEAHNNVLQEVLKHEEEATVVPMSFGMAFKSARTLKGVLRGARRALRSTLNDIEGTVELGVKILGPGDDTVPREEIQENVTDQLADLSINETENDLFTDRLIINKSYLVDFEKRDAFDSAIDDVEAEYDELTIQYTGPWPPYNFVDIHIGAEQQQGGR
As for B12, the binding entry in test [6] is “binds”.

B13: GvpF variant D53A (protein, UniProt Q9HI21 1-213)
chain: MTENLYTYGIIEQEDLELDVEGVAGAEQVYTVDYKTLSAVVSDIDTTDPERTAEDVEAHNNVLQEVLKHEEERTVVPMSFGMAFKSARTLKGVLRGARRALRSTLNDIEGTVELGVKILGPGDDTVPREEIQENVTDQLADLSINETENDLFTDRLIINKSYLVDFEKRDAFDSAIDDVEAEYDELTIQYTGPWPPYNFVDIHIGAEQQQGGR
In the case of B13, the binding result in test [6] was “binds”.

B14: GvpF variant D154R (protein, UniProt Q9HI21 1-213)
chain: MTENLYTYGIIEQEDLELDVEGVAGAEQVYTVDYKTLSAVVSDIDTTDPERTDEDVEAHNNVLQEVLKHEEERTVVPMSFGMAFKSARTLKGVLRGARRALRSTLNDIEGTVELGVKILGPGDDTVPREEIQENVTDQLADLSINETENDLFTRRLIINKSYLVDFEKRDAFDSAIDDVEAEYDELTIQYTGPWPPYNFVDIHIGAEQQQGGR
As to B14, the binding result in test [6] is “binds”.

B15: GvpF variant D15A (protein, UniProt Q9HI21 1-213)
chain: MTENLYTYGIIEQEALELDVEGVAGAEQVYTVDYKTLSAVVSDIDTTDPERTDEDVEAHNNVLQEVLKHEEERTVVPMSFGMAFKSARTLKGVLRGARRALRSTLNDIEGTVELGVKILGPGDDTVPREEIQENVTDQLADLSINETENDLFTDRLIINKSYLVDFEKRDAFDSAIDDVEAEYDELTIQYTGPWPPYNFVDIHIGAEQQQGGR
In the case of B15, the binding result in test [6] is listed as “binds”.

B16: GvpF variant K85E (protein, UniProt Q9HI21 1-213)
chain: MTENLYTYGIIEQEDLELDVEGVAGAEQVYTVDYKTLSAVVSDIDTTDPERTDEDVEAHNNVLQEVLKHEEERTVVPMSFGMAFESARTLKGVLRGARRALRSTLNDIEGTVELGVKILGPGDDTVPREEIQENVTDQLADLSINETENDLFTDRLIINKSYLVDFEKRDAFDSAIDDVEAEYDELTIQYTGPWPPYNFVDIHIGAEQQQGGR
For the molecule B16, in test [6], the binding entry is “binds”.

B17: GvpG (protein, UniProt P24371 1-83)
chain: MFIIDDLFVSPFFSLLDILQTMALDEMYDTKSIRDDIKENQLLYEVGERSDEEYQQRKQALESQLEMAEQVQEQMRDRMEVKK
As for B17, the binding result in test [3] and in test [4] was “binds” throughout.
For MAQPDSSGLAEVLDRVLDKGVVVDVWARVSLVGIEILTVEARV (domain or fragment, UniProt P08958 1-43) [GvpA fragment A1-43], the binding entry in test [1] and in test [7] was “no binding (tested: rf ≤ 0.48)” throughout.

B18: GvpI fused to NGFP or CGFP (protein, UniProt Q9HI24 1-144)
chain: MSDKQQQKHKQKARQARVKAQINRDKARRNLLRQREKLARRRTRNRKQSEPRRDDSDGDDTDGETVKNPAAHSTMPPQKSNAENAVRNSHSTVPKTPKYSDVTARERLYGQRLHQKTAGGNSEASAPSDESASGSPTEDEVNDE
As for B18, in test [5], the binding result is “binds”.
